According to article PMC11783601, “Analogue-Sensitive Inhibition of Histone Demethylases Uncovers Member-Specific Function in Ribosomal Protein Synthesis” (Journal of the American Chemical Society, 2025):

Target: T1, KDM4A F185A (asKDM4A) in HEK293T cells (Homo sapiens, UniProt O75164, F185A)
T1 construct: we generated the F185A mutation in full-length KDM4A carrying all of the functional domains; host or cells: HEK293T
T1 sequence (O75164 1-1064 F185A): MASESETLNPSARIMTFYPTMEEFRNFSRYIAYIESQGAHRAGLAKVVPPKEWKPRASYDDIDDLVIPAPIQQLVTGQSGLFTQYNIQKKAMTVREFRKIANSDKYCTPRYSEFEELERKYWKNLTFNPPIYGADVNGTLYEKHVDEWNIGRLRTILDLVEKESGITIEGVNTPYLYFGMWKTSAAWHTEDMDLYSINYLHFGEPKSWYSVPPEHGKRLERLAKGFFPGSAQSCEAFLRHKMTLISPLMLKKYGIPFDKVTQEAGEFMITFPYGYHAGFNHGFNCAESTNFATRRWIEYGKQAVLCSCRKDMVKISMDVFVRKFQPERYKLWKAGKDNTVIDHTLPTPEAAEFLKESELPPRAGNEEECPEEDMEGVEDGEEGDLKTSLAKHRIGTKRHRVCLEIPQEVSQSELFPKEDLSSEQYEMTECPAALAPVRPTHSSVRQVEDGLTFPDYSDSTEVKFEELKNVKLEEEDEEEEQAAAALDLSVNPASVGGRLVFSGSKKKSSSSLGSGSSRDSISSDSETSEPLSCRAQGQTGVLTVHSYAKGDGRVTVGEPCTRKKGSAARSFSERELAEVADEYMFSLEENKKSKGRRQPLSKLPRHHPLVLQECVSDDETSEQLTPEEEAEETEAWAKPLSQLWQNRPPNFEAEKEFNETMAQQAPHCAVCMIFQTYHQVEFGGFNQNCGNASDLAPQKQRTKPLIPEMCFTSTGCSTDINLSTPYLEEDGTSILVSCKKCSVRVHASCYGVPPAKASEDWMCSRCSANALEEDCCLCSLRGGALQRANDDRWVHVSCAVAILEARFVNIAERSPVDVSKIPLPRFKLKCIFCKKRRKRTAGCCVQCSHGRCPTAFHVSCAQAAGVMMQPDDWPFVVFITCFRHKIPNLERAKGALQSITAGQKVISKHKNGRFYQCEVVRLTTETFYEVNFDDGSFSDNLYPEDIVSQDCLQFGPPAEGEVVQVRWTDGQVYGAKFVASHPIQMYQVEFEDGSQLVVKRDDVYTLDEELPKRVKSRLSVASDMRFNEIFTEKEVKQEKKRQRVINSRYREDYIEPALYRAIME
Assay: Histone extraction, digestion and tandem mass spectrometry (relative abundance of histone modifications)
Format: cell-based
Method: HEK293T cells were transiently transfected with asKDM4A and treated with varying concentrations of 6A or 6B. […] To further confirm the activity of the enzyme–inhibitor pair, we performed tandem mass spectrometry of tryptic histones isolated from HEK293T cells expressing asKDM4A in the presence or absence of 100 μM 6A. […]
22. Histone extraction, digestion and tandem mass spectrometry
HEK 293-T cells (ATCC CRL-1573) were plated into 6-well plates (Corning) in DMEM (Corning) supplemented with 10% FBS (Corning) and 1X Antibiotic/Antimycin
(Penicillin/Streptomycin/Fungiozone) (Cytiva HyClone) in an incubator held at 37 °C with 5%
CO2. At 75% confluency, cells were transfected with 2.5 µg KDM4A F185A or Empty Vector with 5µg Thermo Turbofect (FERR0531). After 4 hours, the media was washed and 200 µM of 6A or equivalent volume of DMSO was added and left to incubate at 37 °C for 24 hours. Cells were then washed with 1X PBS (Corning) followed by trypsinization (Gibco TrypLE™ Express Enzyme). Collected cells were centrifuged at 3000xg for 3 minutes, followed by washing with 1X PBS and centrifuged for an additional 3000xg for 3 minutes. Histone proteins were extracted from the pellet as described by25 to ensure good-quality identification and quantification of single histone marks. Briefly, cell pellets were dissolved in 100 µL of cold 0.2 M H2SO4 and incubated for 2 hours rotating in a cold room (4 °C). Aliquots were then centrifuged at 3400xg for 5 minutes […]
at 4 °C and the supernatant was added to a fresh tube. 100% cold TCA was then added to a final volume of 33% volume/volume TCA/supernatant and left to incubate for 1 hour in a cold room (4 °C). Samples were then centrifuged at 3400xg for 5 min at 4 °C and the supernatant was discarded. The precipitate was then washed with cold acetone/0.1% HCl and centrifuged at 3400xg for 5 minutes at 4 °C. The supernatant was discarded, and the precipitate was washed with cold acetone and centrifuged at 3400xg for 5 minutes at 4 °C. The supernatant was discarded, and the pellet was dried using a vacuum centrifuge.
The pellet was dissolved in 50 mM ammonium bicarbonate, pH 8.0, and histones were subjected to derivatization using 5 µL of propionic anhydride and 14 µL of ammonium hydroxide (all Sigma Aldrich) to balance the pH at 8.0. The mixture was incubated for 15 min and the procedure was repeated. Histones were then digested with 1 µg of sequencing grade trypsin (Promega) diluted in 50mM ammonium bicarbonate (1:20, enzyme:sample) overnight at room temperature.
Derivatization reaction was repeated to derivatize peptide N-termini. The samples were dried in a […]
Sample desalting: Prior to mass spectrometry analysis, samples were desalted using a 96-well plate filter (Orochem) packed with 1 mg of Oasis HLB C-18 resin (Waters). Briefly, the samples were resuspended in 100 µl of 0.1% TFA and loaded onto the HLB resin, which was previously equilibrated using 100 µl of the same buffer. After washing with 100 µl of 0.1% TFA, the samples were eluted with a buffer containing 70 µl of 60% acetonitrile and 0.1% TFA and then dried in a […]
LC-MS/MS Acquisition and Analysis: Samples were resuspended in 10 µl of 0.1% TFA and loaded onto a Dionex RSLC […] (Thermo Scientific), coupled online with an Orbitrap Fusion Lumos (Thermo Scientific). Chromatographic separation was performed with a two-column system, consisting of a C-18 trap cartridge (300 µm ID, 5 mm length) and a picofrit analytical column (75 µm ID, 25 cm length) packed in-house with reversed-phase Repro-Sil Pur C18-AQ 3 µm resin. Peptides were separated using a 30 min gradient from 1-30% buffer B (buffer A: 0.1% formic acid, buffer B: 80% acetonitrile + 0.1% formic acid) at a flow rate of 300 nl/min.
The mass spectrometer was set to acquire spectra in a data-independent acquisition (DIA) mode.

[1] = HEK293T cells, KDM4A F185A + 6A, replicates 6A_1 and 6A_2
[2] = peptide form, samples 6A_1, 6A_2

SMILES: CCCCCCCCOC(=O)C(=O)NC(CC(C)C)C(=O)O [6A, L-Leu octyl-ester NOG]
- Relative abundance H2A_82_88 unmod [1]: 100.0%
- Relative abundance H2B_1_29 1B.PEPSKSAPAPKKGSKKAISKAQKKDGKKR [1]: 0.0%
- Relative abundance HLQLAIR(H2A_82_88) (peptide total) [1]: 100.0%
- Relative abundance unmod(H2A_1_88) (total) [1]: 100.0%
- Relative abundance unmod(H2B_1_29) (total) [1]: 0.0%
- Relative abundance, H2A1_1_11 K5ac [2]: 13.4% and 13.0%
- Relative abundance, H2A1_1_11 unmod [2]: 62.1% and 84.8%
- Relative abundance, H2A1_4_11 K5ac [2]: 3.2% and 5.1%
- Relative abundance, H2A1_4_11 K9ac [2]: 0.9% and 1.2%
- Relative abundance, H2A1_4_11 unmod [2]: 95.2% and 80.1%
- Relative abundance, H2A1_36_42 K36ac [2]: 0.048% and 0.0169%
- Relative abundance, H2A1_36_42 unmod [2]: 100.0%
- Relative abundance, H2A3_36_42 unmod [2]: 99.7% and 100.0%
- Relative abundance, H2AJ_4_11 K5acK9ac [2]: 89.8% and 67.1%
- Relative abundance, H2AJ_4_11 K5me1 [2]: 2.7% and 5.5%
- Relative abundance, H2AJ_4_11 K9me1 [2]: 3.1% and 5.2%
- Relative abundance, H2AJ_4_11 unmod [2]: 3.7% and 11.0%
- Relative abundance, H2AV_1_19 K4ac [2]: 0.347% and 0.0%
- Relative abundance, H2AV_1_19 K4acK7ac [2]: 0.0%
- Relative abundance, H2AV_1_19 K4acK7acK11acK15ac [2]: 4.7% and 1.7%
- Relative abundance, H2AV_1_19 K4acK7acK15ac [2]: 0.0069% and 0.0%
- Relative abundance, H2AV_1_19 K4acK11ac [2]: 0.0%
- Relative abundance, H2AV_1_19 K4acK11acK15ac [2]: 0.0%
- Relative abundance, H2AV_1_19 K4acK15ac [2]: 0.0%
- Relative abundance, H2AV_1_19 K7ac [2]: 1.4% and 0.0%
- Relative abundance, H2AV_1_19 K7acK11ac [2]: 0.0% and 0.0229%
- Relative abundance, H2AV_1_19 K7acK15ac [2]: 0.0% and 0.0087%
- Relative abundance, H2AV_1_19 K11ac [2]: 0.6% and 0.0%
- Relative abundance, H2AV_1_19 K11acK15ac [2]: 0.0% and 0.237%
- Relative abundance, H2AV_1_19 K15ac [2]: 1.7% and 0.0%
- Relative abundance, H2AV_1_19 unmod [2]: 91.3% and 97.8%
- Relative abundance, H2AX_4_11 K5me1 [2]: 29.7% and 35.1%
- Relative abundance, H2AX_36_42 unmod [2]: 100.0% and 99.1%
- Relative abundance, H2AZ_1_19 K4acK7acK15ac [2]: 0.0004% and 0.0%
- Relative abundance, H2AZ_1_19 K4acK11ac [2]: 0.45% and 0.0%
- Relative abundance, H2AZ_1_19 K4acK11acK15ac [2]: 0.0%
- Relative abundance, H2AZ_1_19 K7acK11ac [2]: 0.0%
- Relative abundance, H2AZ_1_19 K7acK11acK15ac [2]: 0.0048% and 0.0%
- Relative abundance, H2AZ_1_19 K15ac [2]: 0.5% and 0.8%
- Relative abundance, H2AZ_1_19 unmod [2]: 84.5% and 95.5%
- Relative abundance, H3_3_8 K4me1 [2]: 10.4% and 9.4%
- Relative abundance, H3_3_8 unmod [2]: 89.4% and 89.2%
- Relative abundance, H3_9_17 K9ac [2]: 0.3%
- Relative abundance, H3_9_17 K9acS10ph [2]: 0.0019% and 0.0%
- Relative abundance, H3_9_17 K9acS10phK14ac [2]: 0.0004% and 0.0006%
- Relative abundance, H3_9_17 K9me1K14ac [2]: 8.6% and 6.4%
- Relative abundance, H33_27_40 K27me2 [2]: 8.5% and 6.5%
- Relative abundance, H33_27_40 K27me2K36me1 [2]: 14.2% and 9.7%
- Relative abundance, H33_27_40 K27me2K36me2 [2]: 24.3% and 31.1%
- Relative abundance, H33_27_40 K27me3 [2]: 5.7% and 2.7%
- Relative abundance, H33_27_40 K27me3K36me1 [2]: 2.0% and 0.9%
- Relative abundance, H33_27_40 K27me3K36me2 [2]: 4.1% and 6.3%
- Relative abundance, H33_27_40 K27me3S28ph [2]: 0.0%

Values joined by “and” are separate entries in the source; they are usually repeats but may differ in a detail not shown here. Identical values can stand only once.
